In PubChem BioAssay AID504332 (National Center for Advancing Translational Sciences (NCATS), 2011):
The whole screen tested about 350,000 compounds, of which about 31,000 (8.9%) were called active. This list was built around the results that the source calls inconclusive (neither active nor inactive); the mix of calls is not that of the screen. The call rests on the fitted dose curve; in most records, active means well fitted inhibition curve with a large enough effect; inconclusive means small, poorly fitted or top-dose-only effect; inactive means no such curve, though single readings can be large or run the other way. Where the call is inconclusive, the potency comes from a doubtful curve fit.

molecular target: Histone-lysine N-methyltransferase EHMT2 (Homo sapiens) (UniProt Q96KQ7); experiment: qHTS Assay for Inhibitors of Histone Lysine Methyltransferase G9a; conditions: G9a H3K9 monomethylation, AlphaScreen, 2 h; activity, negative = inhibition: at 59 µM (top of the series) unless noted; further: nearly all actives have a fitted effect of over 75% in size
UniProt Q96KQ7, sequence (Q96KQ7 whole entry, looked up): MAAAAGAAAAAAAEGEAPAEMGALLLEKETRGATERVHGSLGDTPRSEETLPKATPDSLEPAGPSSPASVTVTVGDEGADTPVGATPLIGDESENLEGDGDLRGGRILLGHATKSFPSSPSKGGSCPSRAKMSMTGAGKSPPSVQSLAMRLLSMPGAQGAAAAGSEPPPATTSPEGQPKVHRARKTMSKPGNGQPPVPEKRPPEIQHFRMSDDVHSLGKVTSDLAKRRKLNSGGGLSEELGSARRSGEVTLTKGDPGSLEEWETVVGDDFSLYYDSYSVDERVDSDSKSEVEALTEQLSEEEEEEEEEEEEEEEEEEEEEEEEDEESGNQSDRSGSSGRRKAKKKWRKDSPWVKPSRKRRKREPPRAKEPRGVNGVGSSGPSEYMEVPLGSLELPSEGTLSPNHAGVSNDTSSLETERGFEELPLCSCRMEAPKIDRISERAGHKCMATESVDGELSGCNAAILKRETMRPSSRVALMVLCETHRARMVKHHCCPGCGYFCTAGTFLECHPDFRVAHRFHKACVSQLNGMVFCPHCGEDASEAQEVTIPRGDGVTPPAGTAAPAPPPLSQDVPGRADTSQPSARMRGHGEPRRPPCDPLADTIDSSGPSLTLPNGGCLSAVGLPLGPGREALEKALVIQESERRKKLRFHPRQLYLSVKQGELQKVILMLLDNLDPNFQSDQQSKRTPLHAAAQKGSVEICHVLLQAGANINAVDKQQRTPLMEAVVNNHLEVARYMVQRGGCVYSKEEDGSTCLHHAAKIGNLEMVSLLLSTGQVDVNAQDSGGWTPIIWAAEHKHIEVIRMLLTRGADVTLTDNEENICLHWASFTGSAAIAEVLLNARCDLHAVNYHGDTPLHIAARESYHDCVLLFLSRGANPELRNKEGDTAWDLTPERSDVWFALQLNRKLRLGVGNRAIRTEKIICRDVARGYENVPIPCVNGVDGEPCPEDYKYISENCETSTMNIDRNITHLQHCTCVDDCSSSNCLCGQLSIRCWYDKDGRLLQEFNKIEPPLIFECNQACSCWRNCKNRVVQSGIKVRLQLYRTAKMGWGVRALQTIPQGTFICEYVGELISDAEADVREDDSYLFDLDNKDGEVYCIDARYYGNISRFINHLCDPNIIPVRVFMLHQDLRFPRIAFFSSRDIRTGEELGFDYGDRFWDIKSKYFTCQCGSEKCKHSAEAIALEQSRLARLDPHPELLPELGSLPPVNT
Summary of the method: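 Step 1: enzyme (final 20 nM) with compound, 15 min RT. Step 2: substrate peptide 500 nM and SAM 20 uM, 2 h RT. Step 3: anti-H3K9me1 antibody and AlphaScreen beads, 10 min, then plate read.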
On the % scale 0 is the no-effect control and ±100 the full control effect; potency means the concentration at half of the fitted maximal effect; tags describe the fitted curve by direction and shape.

SMILES | Potency | activity, negative = inhibition
c1ccc(OCc2nn3c(Cn4cnc5ccccc54)nnc3s2)cc1 | inconclusive: 2.82 µM [inhibitor, partial curve, poor fit] | 
CN1CCN(CP(=O)(N2CCOCC2)N2CCOCC2)CC1 | inconclusive: 89.1 µM [inhibitor, partial curve, poor fit] | 
COc1cc2c(cc1OC)[C@H](Cc1ccc(O)cc1)NCC2 | inconclusive: 100 µM [inhibitor, single point] | 
O=C(CS(=O)(=O)Cc1ccccc1)Nc1ccccn1 | inconclusive: 22.4 µM [inhibitor, single point] | 
Cc1ccc(S(=O)(=O)CCCS(=O)(=O)c2ccc(C)cc2)cc1 |  | inactive: 12% [at 102 µM]
COc1ccc(OC)c(CCNC(=O)CCc2cn(Cc3cc(C)ccc3C)c3ccccc23)c1 | inconclusive: 3.16 µM [inhibitor, partial curve, poor fit] | 
COc1ccc(C)cc1NC(=O)c1nnn(Cc2cccc(F)c2)c1N |  | inactive: 19.4%
Cc1cc(C(=O)CN2C(=O)C(=O)N(CC(C)C)C2=O)c(C)n1-c1ccccc1F | inconclusive: 50.1 µM [inhibitor, partial curve] | 
O=C(O)c1ccc(N/N=C/c2ccnc3ccccc23)cc1 |  | inconclusive: -74.3% [inhibitor]
N#CC[C@H](Cc1ccccc1)N1CC[C@@H](NC(=O)OCc2ccccc2)CCC1=O | inconclusive: 79.4 µM [inhibitor, single point] | 
NS(=O)(=O)c1ccc(NC(=O)COC(=O)CCc2nc3ccccc3c(=O)[nH]2)cc1 | inconclusive: 6.31 µM [inhibitor, single point] | 
O=c1[nH]c2cc3c(cc2cc1CN(Cc1cccnc1)C(=S)NCc1ccco1)OCCO3 | active: 39.8 µM | 
CC1Cc2cc(S(=O)(=O)CCC(=O)NCc3ccc(Cl)cc3)ccc2N1C(=O)C1CC1 (stereo not drawn) | inconclusive: 4.47 µM [inhibitor, partial curve, poor fit] | 
COc1ccc(CNC(=O)CSc2nnc(C)s2)cc1 |  | inactive: 17.9%
NC(=O)c1cccc2c3c([nH]c12)CCCC3 | inconclusive: 56.2 µM [inhibitor, partial curve, poor fit] | 
CCC/C(O)=C1\C(=O)CCCC1=NC(C)C(=O)O (stereo not drawn) | inconclusive: 89.1 µM [inhibitor, partial curve, poor fit] | 
CCCCn1c(N)c(N(CC(C)C)C(=O)c2cc3c(s2)CCC3)c(=O)[nH]c1=O | inconclusive: 79.4 µM [inhibitor, single point] | 
Cc1ccc(Cl)cc1NS(=O)(=O)c1ccc2c(c1)NC(=O)CCS2 |  | inactive: -1.76%
Cc1ccc(N(Cc2ccc([N+](=O)[O-])cc2)C(=O)c2ccco2)cc1C | inconclusive: 17.8 µM [inhibitor, single point] | 
Cc1ccc(S(=O)(=O)Cc2sc3ccccc3[n+]2C)cc1 | active: 44.7 µM | 
Cc1cccc(OCc2nnc(SCC(=O)N3CCCCC3)o2)c1 |  | inactive: 24.3% [at 102 µM]
CO/N=C/NC(=O)c1cn(-c2ccc(F)cc2)c(=O)c2ccccc12 | inconclusive: 2.51 µM [inhibitor, partial curve, poor fit] | 
N#CC1(C#N)C2=C(CCCC2)NC(c2ccccc2)C1(C#N)C#N (stereo not drawn) | active: 17.8 µM | 
O=C(O)c1cc(N/N=C/c2cccs2)ccc1Cl |  | inconclusive: -96.3% [inhibitor]
CC1(C)C=Cc2c(c3c(c4c(=O)c(-c5ccc(O)cc5)coc24)OC(C)(C)CC3)O1 | inconclusive: 14.1 µM [inhibitor, full curve] | 

SMILES | Potency | activity, negative = inhibition
N#Cc1c(C#N)c(-c2ccccc2)n(-c2ccc(C(=O)O)cc2)c1N | active: 56.2 µM | 
Brc1ccc(-c2csc(/N=C/N3CCOCC3)n2)cc1 | active: 50.1 µM | 
O=C(N1CCOCC1)C1(c2ccc(Cl)cc2)CCCC1 |  | inactive: 7.31%
O=C(/C=C/c1cccc([N+](=O)[O-])c1)NC(=S)Nc1ccccc1C(=O)O | active: 44.7 µM | 
Cc1nc2ccccn2c1/C(O)=C1\C(=O)C(=O)N(CCN(C)C)C1c1cccnc1 (stereo not drawn) | inconclusive: 39.8 µM [inhibitor, single point] | 
COc1cccc(C2NC(=O)c3n[nH]c(-c4cccs4)c32)c1 (stereo not drawn) |  | inactive: 7.65%
CC(=O)c1ccc(NC(=O)CC2S/C(=N/N=C3CCCCCC3)NC2=O)cc1 (stereo not drawn) | inconclusive: 28.2 µM [inhibitor, partial curve, poor fit] | 
CCCCNC(=O)Cn1c(=O)n(C)c2ccccc21 |  | inactive: 14.8% [at 102 µM]
CCOC(=O)C1(Cc2cccc(Cl)c2)CCCN(C(=O)c2cnn(CC)c2)C1 (stereo not drawn) | active: 25.1 µM | 
CN(C)c1ccc(/C=C/c2nc3ccccc3s2)cc1 |  | inactive: 18.6% [at 0.501 µM]
COc1ccc(-c2cn3nc(N4CCCC(C(=O)Nc5cc(C)ccc5C)C4)sc3n2)cc1 (stereo not drawn) | inconclusive: 35.5 µM [inhibitor, partial curve, poor fit] | 
COc1cccc(OC)c1OCCN1CCN(C(c2ccccc2)c2ccccc2)CC1 |  | inactive: 15.5% [at 2.33 µM]
CCOC(=O)c1c(-c2ccccc2)oc2cc(Br)c(O)cc12 |  | inactive: 16.8% [at 102 µM]
O=C(COC(=O)/C=C/c1ccc(OC(F)F)cc1)NC1CCCCCCC1 | inconclusive: 100 µM [inhibitor, single point] | 
COc1ccc(NC(=O)Cc2ccc(Cl)cc2)cc1NC(=O)c1ccco1 | inconclusive: 89.1 µM [inhibitor, partial curve, poor fit] | 
O=C1C(=O)N(CCCN2CCOCC2)C(c2ccc(F)cc2)/C1=C(\O)c1ccc2c(c1)OCCO2 (stereo not drawn) | active: 44.7 µM | 
CCn1ccc2cc(S(=O)(=O)N3CCCN(C(=O)Nc4ccccc4C(F)(F)F)CC3)ccc21 |  | inactive: 4.93%
C[C@@H]1NC(=O)[C@H](CCCN=C(N)N)NC(=O)c2cc([N+](=O)[O-])cc(I)c2OCC[C@@H](C(N)=O)NC1=O | active: 31.6 µM | 
COC(=O)/C(=C/c1ccco1)NC(=O)c1ccc(Br)o1 | active: 44.7 µM | 
CN(Cc1ccccn1)C(=O)C1CCC(=O)N(Cc2cccc(C(F)(F)F)c2)C1 (stereo not drawn) |  | inactive: 12.9% [at 102 µM]
Cc1nc(N)nc(OCC(F)(F)C(F)F)c1Br | inconclusive: 56.2 µM [inhibitor, partial curve, poor fit] | 
CCOC(=O)c1ccc(N2Cc3ccccc3C2)cc1O | inconclusive: 2 µM [inhibitor, partial curve, poor fit] | 
CCc1ccc(NC(=O)Cn2c(=O)c(-c3ccccc3NC(C)=O)nc3ccccc32)cc1 |  | inactive: 4.81%
CCOC(=O)C1=C(C)OC(N)=C(C#N)C1c1ccc(C)s1 (stereo not drawn) | inconclusive: 25.1 µM [inhibitor, partial curve, poor fit] | 
O=C(O)CSCCn1cccn1 | inconclusive: 79.4 µM [inhibitor, single point] | 

SMILES | Potency | activity, negative = inhibition
O=[N+]([O-])c1cccc(S(=O)(=O)Nc2cccc(-c3ccc(N4CCOCC4)nn3)c2)c1 | active: 10 µM | 
COc1ccc(/C=N/NC(=O)c2ccoc2C)cc1CN1CCN(c2ccc(F)cc2)CC1 | inconclusive: 25.1 µM [inhibitor, single point] | 
CC(=O)N[C@@H](Cc1ccc(O)cc1)C(=O)O |  | inactive: 23%
Cn1cccc1CC(=O)NNC(=O)Nc1ccc(Cl)cc1 | inconclusive: 89.1 µM [inhibitor, single point] | 
COc1ccc(NC(=O)COC(=O)CCC(=O)c2cccs2)cc1OC | inconclusive: 7.08 µM [inhibitor, single point] | 
Cc1cccc(/C=N\NC(=O)c2ccccc2-n2cccc2)c1 | inconclusive: 22.4 µM [inhibitor, full curve] | 
Cc1cccc(OCC(=O)Nc2ccc3c4c(cccc24)CC3)c1C |  | inactive: -7.48%
Nc1c(S(=O)(=O)c2cccs2)c2nc3ccccc3nc2n1Cc1cccs1 |  | inactive: 15.5% [at 102 µM]
COc1ccc(C(=O)N[C@H](C(=O)Nc2nc3c(s2)CCCC3)C(C)C)cc1 | inconclusive: 25.1 µM [inhibitor, single point] | 
O=C(Nc1cccc2ccccc12)N1CC=CCC1 | inconclusive: 8.91 µM [inhibitor, single point] | 
CCN(CC)C(=O)CSc1nnc2cc(C)c3ccccc3n12 | inconclusive: 6.31 µM [inhibitor, single point] | 
CC(NC(=O)COC(=O)c1cc([N+](=O)[O-])ccc1N1CCOCC1)c1ccc(F)cc1 (stereo not drawn) | inconclusive: 22.4 µM [inhibitor, full curve] | 
CC(=O)Nc1ccc(Nc2nc(C)nc3c2oc2ccccc23)cc1 |  | inactive: -4.39% [at 12.7 µM]
CC1CCN(S(=O)(=O)c2ccc(N3CCCCS3(=O)=O)cc2)CC1 | inconclusive: 35.5 µM [inhibitor, partial curve, poor fit] | 
O=C(CN1CCN(Cc2ccccc2)CC1)c1ccc(Br)cc1 |  | inactive: -44.3% [at 0.501 µM]
COc1ccc(NC(=O)c2ccc(Br)o2)c([N+](=O)[O-])c1 | inconclusive: 3.16 µM [inhibitor, partial curve, poor fit] | 
CCc1ccc(C(C(=O)NC2CCCCC2)N(C(=O)c2csnn2)C2CC2)cc1 (stereo not drawn) |  | inactive: 35.7% [at 102 µM]
Cc1ccc(SCCOCCN2CC(C)OC(C)C2)cc1 (stereo not drawn) | inconclusive: 89.1 µM [inhibitor, partial curve, poor fit] | 
Cc1ccc(-c2nc(C)sc2CC(=O)Nc2cccc(C)c2C)cc1 |  | inactive: 11.3% [at 102 µM]
CC(=O)Nc1nc2ccccc2[nH]1 |  | inactive: 1.5% [at 102 µM]
CN(CCCNC(=O)Cn1cccc1C(=O)c1ccccc1)C1CCCCC1 |  | inactive: -29.7% [at 102 µM]
CCCC(=O)NC(=S)c1c(C)n(C)n(-c2ccccc2)c1=O | active: 44.7 µM | 
O=C(NNS(=O)(=O)c1ccccc1C(F)(F)F)c1cccc(S(=O)(=O)Nc2ccccc2Cl)c1 | inconclusive: 39.8 µM [inhibitor, single point] | 
